The values below come from article PMC4336329 (PLoS ONE, 2015).

Among all 310,000 compounds or so, about 2,200 (0.71%) showed an effect of 50% or more. Effects have a minus sign here. Some of the results follow. Where a SMILES comes first, the peptide text is derived from it. [ ]: non-standard residue; d: D form. The star is where a group is joined. ξ: configuration not given here. Cbz = O=C(OCc1ccccc1)*; OBn = c1ccc(CO*)cc1; ξP = O=C(O)C1CCCN1

Sequence of human ether-à-go-go-related gene (hERG) potassium channel (Q12809 whole entry, looked up): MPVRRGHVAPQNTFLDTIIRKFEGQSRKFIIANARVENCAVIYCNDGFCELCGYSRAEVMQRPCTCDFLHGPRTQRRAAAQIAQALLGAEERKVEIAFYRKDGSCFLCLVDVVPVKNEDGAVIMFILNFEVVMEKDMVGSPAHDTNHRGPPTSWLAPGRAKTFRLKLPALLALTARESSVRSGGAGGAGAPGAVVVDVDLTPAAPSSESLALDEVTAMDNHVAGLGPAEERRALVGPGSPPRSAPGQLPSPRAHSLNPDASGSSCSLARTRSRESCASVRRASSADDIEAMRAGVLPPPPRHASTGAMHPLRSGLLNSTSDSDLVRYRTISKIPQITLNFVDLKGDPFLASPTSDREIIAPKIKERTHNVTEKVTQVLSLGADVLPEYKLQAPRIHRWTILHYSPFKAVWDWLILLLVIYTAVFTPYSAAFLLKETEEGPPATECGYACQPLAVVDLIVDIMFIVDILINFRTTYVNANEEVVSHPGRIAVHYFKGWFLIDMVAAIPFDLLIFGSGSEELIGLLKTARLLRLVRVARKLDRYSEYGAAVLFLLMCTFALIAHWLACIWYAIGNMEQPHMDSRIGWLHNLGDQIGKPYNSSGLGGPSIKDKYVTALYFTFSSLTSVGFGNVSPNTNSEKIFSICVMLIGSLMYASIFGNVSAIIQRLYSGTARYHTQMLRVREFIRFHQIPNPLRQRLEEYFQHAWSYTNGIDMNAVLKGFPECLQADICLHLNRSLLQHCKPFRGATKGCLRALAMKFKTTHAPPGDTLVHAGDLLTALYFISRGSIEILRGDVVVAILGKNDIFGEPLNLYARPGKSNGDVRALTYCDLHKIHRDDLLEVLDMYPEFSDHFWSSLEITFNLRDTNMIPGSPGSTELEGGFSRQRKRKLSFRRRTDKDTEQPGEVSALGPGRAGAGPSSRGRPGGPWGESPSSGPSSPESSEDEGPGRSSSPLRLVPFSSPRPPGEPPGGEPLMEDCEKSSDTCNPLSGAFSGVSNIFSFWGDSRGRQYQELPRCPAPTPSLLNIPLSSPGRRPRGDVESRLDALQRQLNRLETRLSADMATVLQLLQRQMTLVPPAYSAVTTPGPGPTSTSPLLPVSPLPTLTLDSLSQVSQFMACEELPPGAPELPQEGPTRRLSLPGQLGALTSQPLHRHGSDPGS

This assay addresses human ether-à-go-go-related gene (hERG) potassium channel (human, UniProt Q12809). Kind of assay: primary screen, population patch clamp on CHO cells stably expressing hERG.
Turning to `O=C1CN(C(=O)CCN2CCOCC2)C(c2ccccc2)c2cc(Br)ccc2N1` (stereo not shown), the “hERG current change (%, negative = inhibition) at 1uM” value is recorded as -8.54%.
For `COC(=O)C1=C(N)Oc2cc(C)n(Cc3ccccc3)c(=O)c2C1c1ccccc1` (stereo not shown), the “hERG current change (%, negative = inhibition) at 1uM” value is -3.42%.
The value for `COc1ccc(NC(=O)CSc2nncs2)cc1OC` was 8.22%.
The value for `Cc1cccc(C(=O)Nc2cccc(OCC(=O)O)c2)c1` was 6.5%; that for `COC(=O)CSc1nc2nc(-c3cccs3)cc(C(F)(F)F)c2c(=O)[nH]1` was 11.4%; that for `O=C(c1ccccc1)N1CCSC1=S` was 3.13%.
The result for `Cc1occc1-c1nnc(SCc2cc(=O)n3cc(Br)ccc3n2)n1C` reads -29.4%.
As for `CCOc1ccc(C(=O)Nc2c3c(nn2-c2cccc(Cl)c2)CS(=O)C3)cc1` (stereo not shown), the “hERG current change (%, negative = inhibition) at 1uM” value is -3.81%.
With `COC(=O)c1ccc(/C=N/OCC(=O)NCCc2ccc(OC)c(OC)c2)cc1`, the “hERG current change (%, negative = inhibition) at 1uM” value was found to be 11.3%.
The result for `CCc1[nH]nc(C(=O)N2CCCC(N3CCN(c4ccccc4C)CC3)C2)c1C` (stereo not shown) reads 1.71%; that for `C=CCOC(=O)c1sc(NC(=O)c2ccc(OC)cc2)nc1C`, 16.2%; that for `O=C(CN1C(=O)C2CCCCN2C(=O)c2ccccc21)Nc1ccc(F)cc1.O=C(O)C(=O)O` (stereo not shown), 8.42%.
The result for `COc1ccc(CCNC(=O)CS(=O)Cc2nc(-c3ccccc3F)oc2C)cc1OC` (stereo not shown) reads 22%; that for `O=C(NCc1ccccc1)[C@@H]1CSC2c3ccccc3C(=O)N21` (stereo partly shown), 0.963%; that for `Cc1ccccc1/C=C\c1nc2ccccc2c(=O)n1Cc1ccccc1`, 3.77%.
As for `CCN(CC)P1(=O)OC(c2cc(OC)c(OC)c(OC)c2)=Nc2c1c(C)nn2-c1ccccc1` (stereo not shown), the “hERG current change (%, negative = inhibition) at 1uM” value came to 12.1%.
In the case of `COc1ccc(-n2nc(C(=O)NCC(=O)NCCCN3CC(C)CC(C)C3)c3ccccc3c2=O)cc1` (stereo not shown), the “hERG current change (%, negative = inhibition) at 1uM” value was 0.517%.
For `CCN(CC)C(=O)c1[nH]cnc1C(=O)Nc1ccc(OC)cc1`, the “hERG current change (%, negative = inhibition) at 1uM” value was determined as 19.2%.
The value for `O=c1[nH]c(=S)[nH]c(O)c1C(c1ccccn1)c1c(O)[nH]c(=S)[nH]c1=O` was 9.46%.
The value for `CCCCn1c(SCC(=O)Nc2ccc3c(c2)CCC3)nc2ccccc2c1=O` was -0.515%; that for `O=C(CSCc1ccc(Cl)cc1)N1CCCCC1` was 10.1%; that for `Cc1cc(S(=O)(=O)NC2CCCCC2)ccc1OCC(=O)NCC1CCCO1` (stereo not shown) was 17.2%.
The result for `COc1ccc(NC(=O)c2cc(-c3ccco3)nc3ccccc23)cc1S(=O)(=O)N1CCOCC1` reads 5.75%; that for `CCC(C(=O)N1CCN(S(=O)(=O)c2ccc(F)cc2)CC1)c1ccccc1` (stereo not shown), 0.115%; that for `COc1ccc(C2(CNC(=O)c3ccccc3[N+](=O)[O-])CCOCC2)cc1`, 11.1%.
Consider `Cc1c(C(=O)OCC(=O)N(C)c2ccccc2)cccc1[N+](=O)[O-]`, for which the “hERG current change (%, negative = inhibition) at 1uM” value stood at 12.6%.
The value for `O=C(NC(=S)Nc1ccc(N2CCOCC2)cc1)c1cccs1` was 6.36%; that for `COc1cc(SC)ccc1C(=O)Nc1ccc2c(c1)CCC2` was 10.4%; that for `Cc1ccccc1Cn1c(=O)n(CCCC(=O)NCc2ccco2)c(=O)c2ccccc21` was 3.14%.
On to `CC(C)CN1CCC(=O)N([C@H](CO)Cc2ccccc2)CC1`, for which the “hERG current change (%, negative = inhibition) at 1uM” value came out at 11.4%.
The value for `Cc1cc(CNC(=O)Cc2ccc(F)cc2)c2ccccc2n1` was -2.68%; that for `Cc1ccc(/C=N/NC(=O)c2nnn(-c3nonc3N)c2CNc2ccccc2)cc1` was 3.23%.
Take `COC(=O)c1ccc(NC(=O)CN2CCCC2)cc1`: the “hERG current change (%, negative = inhibition) at 1uM” value is listed as 11.3%.
Regarding `Cc1ccc(-c2ccc(C(=O)NCc3ccc(Cl)cc3)o2)c2ccccc12`, the “hERG current change (%, negative = inhibition) at 1uM” value is recorded as 7.9%.
The value for `CC(=O)N1c2c(cc(Br)cc2S(=O)(=O)N2CCN(C(=O)c3ccco3)CC2)CC1C` (stereo not shown) was 1.34%; that for `Cc1ccccc1CN1C[C@@H]2C[C@@H](c3cnc(N4CCOCC4)s3)N3CCC[C@@]23C1=O` was 16.4%; that for `Cc1cc(-c2ccccc2)nc(N(C)C)c1S(C)(=O)=O` was 4.07%.
The value for `Cc1ccnc(-n2sc3ccccc3c2=O)n1` was 0.984%; that for `COc1cccc(CN2CCN(S(=O)(=O)c3ccc(Cl)s3)CC2)c1` was 8.04%.
As for `O=C(CCSc1ccc(Cl)cc1)NCc1ccncc1`, the “hERG current change (%, negative = inhibition) at 1uM” value is on record as -1.61%.
On to `Cl.O=C(CN1CCCC1)N1c2ccccc2C=Cc2ccccc21`, for which the “hERG current change (%, negative = inhibition) at 1uM” value came out at 11.1%.
In the case of `CCn1c(=O)c(CCC(=O)N2CCN(c3ccccn3)CC2)c(C)c2c(C)nn(-c3ccccc3)c21`, the “hERG current change (%, negative = inhibition) at 1uM” value is given as 6.18%.
With `CCOc1ccc(NC(=O)c2ccccc2NC(=O)CN(C)CC(=O)Nc2ccc(C)cc2)cc1`, the “hERG current change (%, negative = inhibition) at 1uM” value came to 1.17%.
The result for `CCOC(=O)N1CCN(Cc2nc3c(c(=O)n(C)c(=O)n3C)n2Cc2ccc(F)cc2)CC1` reads -9.89%; that for `COc1cc(/C=N/Nc2nn3cnnc3c3ccccc23)cc(OC)c1OC`, 9.29%; that for `COc1ccc(/C=C/C(=O)NC(=S)NNC(=O)c2cccnc2)cc1OC`, -1.11%.
The value for `CCOC(=O)CN1C(=O)N[C@H](c2ccc(Br)cc2)C(C(C)=O)=C1C` was 9.87%; that for `CN=c1scc(-c2cc(OC)ccc2OC)n1/N=C/c1c(C)[nH]c2ccccc12` was 12.6%.
For the molecule `CCCc1ccc2oc(C(=O)N(Cc3ccncc3)CC3CCCO3)c(C)c2c1` (stereo not shown), the “hERG current change (%, negative = inhibition) at 1uM” value is reported as -5.93%.
In the case of `O=S1(=O)CCN(Cc2ccc(F)cc2)CC1`, the “hERG current change (%, negative = inhibition) at 1uM” value stood at 8.07%.
Take `COc1cc(/C=C/C(=O)OCC(=O)NC2CCS(=O)(=O)C2)ccc1OC(F)F` (stereo not shown): the “hERG current change (%, negative = inhibition) at 1uM” value is recorded as 0.101%.
`O=C(O)c1ccccc1Nc1ccccc1C(=O)O`: the “hERG current change (%, negative = inhibition) at 1uM” value is -6.65%.
Take `Cc1ccc(NC(=O)N2CCCC(c3nc(-c4ccc(F)cc4)no3)C2)cc1` (stereo not shown): the “hERG current change (%, negative = inhibition) at 1uM” value was -0.763%.
The value for `Cn1cnnc1Sc1nc2c(c(=O)n(C)c(=O)n2C)n1Cc1ccccc1Cl` was -4.45%; that for `CCC(C)NC(=O)c1ccc([N+](=O)[O-])c(Cl)c1` (stereo not shown) was 11.5%; that for `CCOc1ccc(-c2nnn(CC(=O)Nc3cccc(OC)c3)n2)cc1OCC` was 13.3%.
The result for `O=C(CSc1nc2ccc([N+](=O)[O-])cc2s1)NCC1CCCO1` (stereo not shown) reads -22.3%.
The result for `Cc1c(C(=O)N2CCN(c3ccc([N+](=O)[O-])cc3)CC2)oc2ccccc12` reads -12.9%.
Turning to `CCOC(=O)c1c(C)nc(-c2ccccc2)nc1NC(C)=O`, the “hERG current change (%, negative = inhibition) at 1uM” value was -1.89%.
The result for `c1ccc(OCc2nnc3n2N=C(c2ccccc2)CS3)cc1` reads 4.99%; that for `Cc1nn(-c2nc3ccccc3n2Cc2ccccc2)c2c1C(=O)CC(C)(C)C2`, -5.11%.
The value for `COc1ccccc1Nc1nc(-c2sc(NC(=O)c3ccccc3)nc2C)cs1` was 9.63%; that for `COc1ccc(NC(C)=O)cc1NC(=O)CN1CCN(S(=O)(=O)c2ccc(C(C)C)cc2)CC1` was 2.23%; that for `CCOc1ncccc1C(=O)OCC(=O)NC1CC1` was 16.7%.
The value for `Clc1cccc(Cl)c1/C=N\Nc1nccs1` was 4.98%; that for `CCc1ccc(NC(=O)CN2CCCN(S(=O)(=O)c3ccc(F)cc3)CC2)cc1` was -21.2%.
Take `Cc1ccc(S(=O)(=O)N2CCN(C(=O)c3ccccn3)CC2)cc1`: the “hERG current change (%, negative = inhibition) at 1uM” value was 10.9%.
The result for `CCOc1ccc(/C(O)=C2/C(=O)C(=O)N(Cc3cccnc3)C2c2ccc(N(C)C)cc2)c(C)c1` (stereo not shown) reads -4.94%.
Regarding `O=C(O)C(=O)O.O=C(c1cccs1)N1CCN(Cc2ccccn2)CC1`, the “hERG current change (%, negative = inhibition) at 1uM” value is recorded as 11.4%.
The result for `CCCCn1nc2cc(C(=O)NCC34CC5CC(CC(C5)C3)C4)ccc2c1OCC` reads 8.81%; that for `CCOC(=O)N1CCC(N2Cc3cccc(C(=O)Nc4ccc(N(CC)CC)cc4C)c3C2=O)CC1`, 6.74%; that for `O=C(NCC1CCCO1)c1ccc(NC(=O)C2CC=CCC2C(=O)O)cc1` (stereo not shown), 13.3%.
The result for `CCOC(=O)c1sc(/N=C/c2c(O)n(-c3ccccc3)c(=O)[nH]c2=O)c(C#N)c1C` reads 12.3%; that for `Cc1ccc(C(=O)N2CCC(C(=O)NC3CCCC3)CC2)cc1`, 10.1%.
The value for `O=C(CSc1nnc(-c2ccco2)o1)NC(=O)C1COc2ccccc2O1` (stereo not shown) was 8.46%; that for `O=C(CCCC(=O)N1CCN(c2ccccc2F)CC1)c1ccccc1` was 0.99%; that for `O=C(CN1CCN(Cc2ccc(Cl)cc2)CC1)N/N=C/c1ccncc1` was -47.4%.
`O=C(O)Cn1nnnc1-c1ccc(F)cc1`: the “hERG current change (%, negative = inhibition) at 1uM” value turned out to be 0.87%.
`COc1cccc(-c2ncc3ccccc3c2COC(=O)c2ccc(C(F)(F)F)cc2)c1`: the “hERG current change (%, negative = inhibition) at 1uM” value turned out to be 12.6%.
On to `Cc1cccc(CCNC(=O)c2cc(S(=O)(=O)N3CCCCC3)c[nH]2)c1`, for which the “hERG current change (%, negative = inhibition) at 1uM” value is 6.66%.
The result for `COC(=O)c1cn(-c2ccccc2)nc1C(=O)OC` reads 2.12%; that for `O=C(CNC(=O)OCc1ccccc1)NCC(=O)N1CCCC1C(=O)OCc1ccccc1` (stereo not drawn) (Cbz-Gly-Gly-[ξP]-OBn), 4%.
Take `CCOC(=O)[C@H](CCc1ccccc1)N[C@@H](C)C(=O)N1[C@H](C(=O)O)C[C@@H]2CCC[C@@H]21`: the “hERG current change (%, negative = inhibition) at 1uM” value stood at 13.5%.
The value for `O=C(COC(=O)c1ccc(NS(=O)(=O)c2cccs2)cc1)NCC1CCCO1` (stereo not shown) was 8.91%; that for `COCC(=O)N1CCC(n2nccc2NC(=O)c2ccccc2OC)CC1` was 14.1%.
